Assay results published in the supplement of paper PMC9151546.
Repeats are few or missing, and single values can be far off.

Columns and labels:
CHO-K1 [1] = test: hypodiploid nuclei frequency (% of nucleated events); higher = more hypodiploid events (aneugenic)
CHO-K1 [2] = test: micronucleus frequency (% of nucleated events); higher = more micronuclei (genotoxic)
CHO-K1 [3] = test: relative survival (nuclei to bead ratio vs DMSO control) (% of vehicle control); higher = more surviving cells
[4] = concentration: 2.3 (µM), S9 metabolic activation: with S9, exposure time: 3-4 hours
[5] = concentration: 2.3 (µM), S9 metabolic activation: without S9, exposure time: 24 hours
[6] = concentration: 2.87 (µM), S9 metabolic activation: with S9, exposure time: 3-4 hours
[7] = concentration: 2.87 (µM), S9 metabolic activation: without S9, exposure time: 24 hours
[8] = concentration: 3.59 (µM), S9 metabolic activation: with S9, exposure time: 3-4 hours
[9] = concentration: 3.59 (µM), S9 metabolic activation: without S9, exposure time: 24 hours
[10] = concentration: 4.49 (µM), S9 metabolic activation: with S9, exposure time: 3-4 hours
[11] = concentration: 4.49 (µM), S9 metabolic activation: without S9, exposure time: 24 hours
[12] = concentration: 5.6 (µM), S9 metabolic activation: with S9, exposure time: 3-4 hours
[13] = concentration: 5.6 (µM), S9 metabolic activation: without S9, exposure time: 24 hours
[14] = concentration: 7 (µM), S9 metabolic activation: with S9, exposure time: 3-4 hours
[15] = concentration: 7 (µM), S9 metabolic activation: without S9, exposure time: 24 hours
[16] = concentration: 8.8 (µM), S9 metabolic activation: with S9, exposure time: 3-4 hours
[17] = concentration: 8.8 (µM), S9 metabolic activation: without S9, exposure time: 24 hours
[18] = concentration: 11 (µM), S9 metabolic activation: with S9, exposure time: 3-4 hours
[19] = concentration: 11 (µM), S9 metabolic activation: without S9, exposure time: 24 hours
[20] = concentration: 13.7 (µM), S9 metabolic activation: with S9, exposure time: 3-4 hours
[21] = concentration: 13.7 (µM), S9 metabolic activation: without S9, exposure time: 24 hours
[22] = concentration: 17.1 (µM), S9 metabolic activation: with S9, exposure time: 3-4 hours
[23] = concentration: 17.1 (µM), S9 metabolic activation: without S9, exposure time: 24 hours
[24] = concentration: 21.4 (µM), S9 metabolic activation: with S9, exposure time: 3-4 hours
[25] = concentration: 21.4 (µM), S9 metabolic activation: without S9, exposure time: 24 hours
[26] = concentration: 26.7 (µM), S9 metabolic activation: with S9, exposure time: 3-4 hours
[27] = concentration: 26.7 (µM), S9 metabolic activation: without S9, exposure time: 24 hours
[28] = concentration: 33.4 (µM), S9 metabolic activation: with S9, exposure time: 3-4 hours
[29] = concentration: 33.4 (µM), S9 metabolic activation: without S9, exposure time: 24 hours
[30] = concentration: 41.8 (µM), S9 metabolic activation: with S9, exposure time: 3-4 hours
[31] = concentration: 41.8 (µM), S9 metabolic activation: without S9, exposure time: 24 hours
[32] = concentration: 52 (µM), S9 metabolic activation: with S9, exposure time: 3-4 hours
[33] = concentration: 52 (µM), S9 metabolic activation: without S9, exposure time: 24 hours
[34] = concentration: 65 (µM), S9 metabolic activation: with S9, exposure time: 3-4 hours
[35] = concentration: 65 (µM), S9 metabolic activation: without S9, exposure time: 24 hours
[36] = concentration: 82 (µM), S9 metabolic activation: with S9, exposure time: 3-4 hours
[37] = concentration: 82 (µM), S9 metabolic activation: without S9, exposure time: 24 hours
[38] = concentration: 102 (µM), S9 metabolic activation: with S9, exposure time: 3-4 hours
[39] = concentration: 102 (µM), S9 metabolic activation: without S9, exposure time: 24 hours
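Wherever hypodiploid nuclei frequency (% of nucleated events) is given: hypodiploid nuclei gated on a flow cytometer with 488 nm excitation after SYTOX Green staining, cultures at 37 °C, positive controls vinblastine without S9 and cyclophosphamide with S9.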
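Wherever micronucleus frequency (% of nucleated events) is given: cells lysed with nuclei stained by SYTOX Green, then micronucleus-gated events counted against nucleated events by flow cytometry with 488 nm excitation.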
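Wherever relative survival (nuclei to bead ratio vs DMSO control) is given: Lysed-cell nuclei stained with SYTOX Green and counted against counting beads by flow cytometry at 488 nm excitation, with vinblastine (no S9) and cyclophosphamide (plus S9) as positive controls.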

Oc1c(Cl)c(Cl)c(Cl)c(Cl)c1Cl [Pentachlorophenol]
hypodiploid nuclei frequency (CHO-K1 [1]; [4]): 0.24% | hypodiploid nuclei frequency (CHO-K1 [1]; [5]): 0.46% | hypodiploid nuclei frequency (CHO-K1 [1]; [6]): 0.28% | hypodiploid nuclei frequency (CHO-K1 [1]; [7]): 0.6% | hypodiploid nuclei frequency (CHO-K1 [1]; [8]): 0.16% | hypodiploid nuclei frequency (CHO-K1 [1]; [9]): 0.66% | hypodiploid nuclei frequency (CHO-K1 [1]; [10]): 0.38% | hypodiploid nuclei frequency (CHO-K1 [1]; [11]): 0.78% | hypodiploid nuclei frequency (CHO-K1 [1]; [12]): 0.22% | hypodiploid nuclei frequency (CHO-K1 [1]; [13]): 1.1% | hypodiploid nuclei frequency (CHO-K1 [1]; [14]): 0.14% | hypodiploid nuclei frequency (CHO-K1 [1]; [15]): 0.84% | hypodiploid nuclei frequency (CHO-K1 [1]; [16]): 0.2% | hypodiploid nuclei frequency (CHO-K1 [1]; [17]): 0.94% | hypodiploid nuclei frequency (CHO-K1 [1]; [18]): 0.14% | hypodiploid nuclei frequency (CHO-K1 [1]; [19]): 0.98% | hypodiploid nuclei frequency (CHO-K1 [1]; [20]): 0.18% | hypodiploid nuclei frequency (CHO-K1 [1]; [21]): 0.84% | hypodiploid nuclei frequency (CHO-K1 [1]; [22]): 0.26% | hypodiploid nuclei frequency (CHO-K1 [1]; [23]): 0.74% | hypodiploid nuclei frequency (CHO-K1 [1]; [24]): 0.02% | hypodiploid nuclei frequency (CHO-K1 [1]; [25]): 0.72% | hypodiploid nuclei frequency (CHO-K1 [1]; [26]): 0.24% | hypodiploid nuclei frequency (CHO-K1 [1]; [27]): 0.94% | hypodiploid nuclei frequency (CHO-K1 [1]; [28]): 0.22% | hypodiploid nuclei frequency (CHO-K1 [1]; [29]): 1.34% | hypodiploid nuclei frequency (CHO-K1 [1]; [30]): 0.2% | hypodiploid nuclei frequency (CHO-K1 [1]; [31]): 1.12% | hypodiploid nuclei frequency (CHO-K1 [1]; [32]): 0.32% | hypodiploid nuclei frequency (CHO-K1 [1]; [33]): 1.56% | hypodiploid nuclei frequency (CHO-K1 [1]; [34]): 0.32% | hypodiploid nuclei frequency (CHO-K1 [1]; [35]): 1.48% | hypodiploid nuclei frequency (CHO-K1 [1]; [36]): 0.24% | hypodiploid nuclei frequency (CHO-K1 [1]; [37]): 2.32% | hypodiploid nuclei frequency (CHO-K1 [1]; [38]): 0.5% | hypodiploid nuclei frequency (CHO-K1 [1]; [39]): 1.3% | micronucleus frequency (CHO-K1 [2]; [4]): 2.2% | micronucleus frequency (CHO-K1 [2]; [5]): 2.76% | micronucleus frequency (CHO-K1 [2]; [6]): 1.84% | micronucleus frequency (CHO-K1 [2]; [7]): 2.06% | micronucleus frequency (CHO-K1 [2]; [8]): 1.52% | micronucleus frequency (CHO-K1 [2]; [9]): 2.34% | micronucleus frequency (CHO-K1 [2]; [10]): 1.7% | micronucleus frequency (CHO-K1 [2]; [11]): 2.32% | micronucleus frequency (CHO-K1 [2]; [12]): 1.18% | micronucleus frequency (CHO-K1 [2]; [13]): 4.22% | micronucleus frequency (CHO-K1 [2]; [14]): 1.6% | micronucleus frequency (CHO-K1 [2]; [15]): 3.2% | micronucleus frequency (CHO-K1 [2]; [16]): 1.54% | micronucleus frequency (CHO-K1 [2]; [17]): 3.1% | micronucleus frequency (CHO-K1 [2]; [18]): 1.18% | micronucleus frequency (CHO-K1 [2]; [19]): 2.54% | micronucleus frequency (CHO-K1 [2]; [20]): 1.3% | micronucleus frequency (CHO-K1 [2]; [21]): 4.52% | micronucleus frequency (CHO-K1 [2]; [22]): 1.46% | micronucleus frequency (CHO-K1 [2]; [23]): 3.76% | micronucleus frequency (CHO-K1 [2]; [24]): 1.14% | micronucleus frequency (CHO-K1 [2]; [25]): 2.9% | micronucleus frequency (CHO-K1 [2]; [26]): 1.38% | micronucleus frequency (CHO-K1 [2]; [27]): 2.62% | micronucleus frequency (CHO-K1 [2]; [28]): 1.18% | micronucleus frequency (CHO-K1 [2]; [29]): 3.24% | micronucleus frequency (CHO-K1 [2]; [30]): 1.66% | micronucleus frequency (CHO-K1 [2]; [31]): 2.44% | micronucleus frequency (CHO-K1 [2]; [32]): 1.64% | micronucleus frequency (CHO-K1 [2]; [33]): 3.74% | micronucleus frequency (CHO-K1 [2]; [34]): 2.22% | micronucleus frequency (CHO-K1 [2]; [35]): 3.68% | micronucleus frequency (CHO-K1 [2]; [36]): 1.76% | micronucleus frequency (CHO-K1 [2]; [37]): 3.1% | micronucleus frequency (CHO-K1 [2]; [38]): 1.82% | micronucleus frequency (CHO-K1 [2]; [39]): 2.72% | relative survival (CHO-K1 [3]; [4]): 145 | relative survival (CHO-K1 [3]; [5]): 150 | relative survival (CHO-K1 [3]; [6]): 142 | relative survival (CHO-K1 [3]; [7]): 155 | relative survival (CHO-K1 [3]; [8]): 127 | relative survival (CHO-K1 [3]; [9]): 118 | relative survival (CHO-K1 [3]; [10]): 148 | relative survival (CHO-K1 [3]; [11]): 128 | relative survival (CHO-K1 [3]; [12]): 151 | relative survival (CHO-K1 [3]; [13]): 119 | relative survival (CHO-K1 [3]; [14]): 127 | relative survival (CHO-K1 [3]; [15]): 110 | relative survival (CHO-K1 [3]; [16]): 133 | relative survival (CHO-K1 [3]; [17]): 119 | relative survival (CHO-K1 [3]; [18]): 121 | relative survival (CHO-K1 [3]; [19]): 114 | relative survival (CHO-K1 [3]; [20]): 150 | relative survival (CHO-K1 [3]; [21]): 98.8 | relative survival (CHO-K1 [3]; [22]): 132 | relative survival (CHO-K1 [3]; [23]): 114 | relative survival (CHO-K1 [3]; [24]): 113 | relative survival (CHO-K1 [3]; [25]): 111 | relative survival (CHO-K1 [3]; [26]): 97.4 | relative survival (CHO-K1 [3]; [27]): 97.9 | relative survival (CHO-K1 [3]; [28]): 102 | relative survival (CHO-K1 [3]; [29]): 121 | relative survival (CHO-K1 [3]; [30]): 92.9 | relative survival (CHO-K1 [3]; [31]): 95.7 | relative survival (CHO-K1 [3]; [32]): 115 | relative survival (CHO-K1 [3]; [33]): 82.3 | relative survival (CHO-K1 [3]; [34]): 95.8 | relative survival (CHO-K1 [3]; [35]): 83.2 | relative survival (CHO-K1 [3]; [36]): 97.2 | relative survival (CHO-K1 [3]; [37]): 82.3 | relative survival (CHO-K1 [3]; [38]): 78 | relative survival (CHO-K1 [3]; [39]): 54.9
